# The other results are listed elsewhere or left out. At the low end of the ranking the order means little. Measured with an extract: partners may take part in the binding.
# Molecular target: T1, HNF4alpha8 (COS-7 nuclear extract) (UniProt P41235-5)
# T1 sequence: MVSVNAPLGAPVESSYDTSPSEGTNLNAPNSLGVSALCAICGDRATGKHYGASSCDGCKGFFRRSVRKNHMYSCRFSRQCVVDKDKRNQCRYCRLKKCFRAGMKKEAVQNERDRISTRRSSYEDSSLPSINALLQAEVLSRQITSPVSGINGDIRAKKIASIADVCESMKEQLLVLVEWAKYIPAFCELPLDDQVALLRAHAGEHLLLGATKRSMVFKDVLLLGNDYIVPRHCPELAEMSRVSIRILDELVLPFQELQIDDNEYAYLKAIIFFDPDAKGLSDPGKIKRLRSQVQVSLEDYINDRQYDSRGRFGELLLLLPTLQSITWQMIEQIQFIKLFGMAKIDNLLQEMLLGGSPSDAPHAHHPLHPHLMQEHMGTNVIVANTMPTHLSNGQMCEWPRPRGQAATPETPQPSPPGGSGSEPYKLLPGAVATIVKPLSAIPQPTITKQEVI
# Experiment: protein-binding microarray
# Settings: COS-7 nuclear extract on double-stranded Agilent 4x180k PBM; binding buffer, salt, pH and temperature not given; high values mean tight binding; double strand, one strand shown; sequences stand for … in …GCCTAGGGAGATTAGAGTATCGGTCGA
row,Sequence,binding signal (log2 normalized intensity)
1,ATAGGAGGATTTTATTCAGGTGGCCACTGG,0.314
2,ACCTAGAGGCCTTTCTCTCTGCACGAAAAA,-1.2
3,GACCCGTGAATCCTTAAGATTCCTGCTCTA,-1.3
4,TTTCAACATTTAACTTAACCACTCAATCAG,-0.86
5,GGAGAGATAAGAAAAACTGAGCTTTAGATA,-1.41
6,CACAGAAGCATGGATGAATGAGTTTCCAGA,-1.27
7,GCTTGTCAGACAAGTTGCAGGGATGGACTT,3.6
8,TACACAAGCAATAGGGTTCGGTGCAATAAC,-0.528
9,GGAAGTACTGCCCTTAACTCCCGGCACTCT,-0.618
10,GCTATTTGCATCAGCAGAGGACAGAAGAAG,-1.4
11,GTTGTTCCTTTTCTTTCACATACAAAATTT,1
12,TGGCCTTAGGGTGAGGCATCTGGACCATTG,2.07
13,CCCTCCCCCACCCGCGGTCCGTCCCTCCTG,5.4
14,CCTGGACTCTAGAGCCAGACTAGTATTGAG,0.874
15,CAGGATGGGCTCCTGCCTTGGAGAAGTGAA,-1.29
16,AATTTGATCCAGTGTGCAAATGTGTCTTTT,1.57
17,CCTCAGGCCTTTGGACCCAGACTGAATCAC,3.33
18,AGAGAAACCTGGCTGCGAGTCCCTGCTGTG,-1.36
19,AAATAGAGAGCAGACAGGGGCTCAGCTGTC,-1.33
20,TCAAAGGTCAGAAAAAGCTGACGCCCCACC,2.88
21,TCCAGCCCCAGGCTGAGCGTGAACACCGGC,-1.21
22,TCCAAAGTATTTTCTGTCTAGGTGCCAGAA,0.836
23,TCAGAAAGCAGAAGTTCTAGGAGCCTGGAC,-1.25
24,TAAATACCATTAGGGGGCAATTTCCCTGGT,1.31
25,GACTTAGCACAGGAAAGGGCTTTGGGGACT,-1.05

row,Sequence,binding signal (log2 normalized intensity)
1,TAAGCATAACTGGTTCAACCTGTTTCCACT,-1.29
2,GCAGCGCGGGGCTCAAAGGCGGCCCGGGTG,-1.18
3,CTGAAGTCCCCTGTGCTTTGGCCAAATAAT,1.7
4,TGAGGCCGGAGGGCAGGCGGGCCGCCTTTC,-1.29
5,TTCTCCAGTCTATCAGACCAGCATTCTTTC,-1.31
6,TCTGTAAAAGCCAGCATTTCTGTGGACTGC,1.74
7,GTGTGGTGATGGCAGGAGTCAACAGGCAGA,-1.33
8,CTGATAGAAAACGTTCACGTCTCAAGCTTC,-1.3
9,TCTCTTGTGCTCATGACAAAGAAATGTAAC,0.609
10,AGAGGAGCATGGACTTCTGAGCTTGGCAAA,-1.25
11,ATGGGTCCAAAGTTCTGAATGAGCAGACTG,3.84
12,GCCGAGCCTGCAGGTGAATGGAAACAAGAG,-1.3
13,CCAATAGGTTTGATTTCAGCATGTTTAAAT,0.477
14,TTTCCAGTCTAAAATACCTGTTCTCCAGCT,-1.31
15,GTTGTCTGTGACTGGGGTCAAACTCCACAT,6.97
16,AGTGCCTGCTTGCAGATAAAACATTTTTTT,0.0478
17,CTATGTCAGGCCATTTCACCTTTGCCCTGT,7.53
18,CTGTCCAGCAGACAATGGGAGACATTCCTT,-1.36
19,AGAAATCTCCAAGTCAAACATTAGCCAGGA,-1.26
20,ACCCTGCTGTAGTGTGTAAGTATGCTCACT,1
21,TACACACCATAAGAGGCTCTAGATCTCAAA,-1.18
22,CGCTCCCTGTGCCCACTTTCCTGGGCCGGG,-1.25
23,TGGATCATGTGTCTGAGCAAGTTTCCTCCT,-0.366
24,CGTCAGGAGGAAGCAGCGATGGAAGGGATG,-1.23
25,GCGCGTGGCCCAAGGCCTCTGACATAAATC,-1.47

row,Sequence,binding signal (log2 normalized intensity)
1,TCACCTGCTCATTGACCCTTAGGCCAAGGC,3.1
2,TCAGAAGCAGGTCAATAGGGCAGGGGGGAG,1.54
3,AGTCTGGGAAGCTGTGTGAAGTGACTTGCC,0.676
4,AGGGCAGATAACAAGGGCATGTAAAGGAGA,-1.48
5,TCGCACTTCAGCACCATAAAGATAAGCAAG,-1.18
6,TGAATATCTGGCAAATTTGCATTAGTGGAG,1.34
7,AGCCCTTAGGACCAGGGGGGGAATGCACAG,-1.35
8,AGAGTGGACTCACAGCAGGAGGGCTTTCAC,-1.31
9,TCCGAATTGGGGGAGGGTAGTCTATCTCAT,-1.4
10,CAGTAACTGTCATGGATGACCTCTTTTAGT,3.57
11,TTAGCTTTCAGTGACTGCTCATTCTTGACC,2.23
12,GCAGACCTGCCAAAGTGTACCCTGTGCTTC,2.31
13,CGAACCTGTCTCCAGAGGACTTGCGGTGTT,-1.08
14,ATAGGTTACCTTGACCAAAGTACAGTAATT,3.24
15,GGACTCCCAAGATGGATTGGGTCCACACAT,2.25
16,GCTGCGGTGGGCTCCACCCAGTTCGTGCTT,-1.23
17,TCCTAGAGTCCCTATTTGCTTGTGAATGAA,0.61
18,AATAAAATCTGGCAGCTTAAAAATGTTGAC,-1.15
19,CCAGGCCTCCAGCTCTTTTGAACCCAAGGC,2.76
20,CTGCTTGTGAGACCGGTTCCGCGGTCCGCA,-1.3
21,CTTCTGTTTAAACTGATAACCTTGCCCAAC,0.853
22,TCGAGGCCAGGGATTAAAGAATTCGTCCAG,-1.41
23,GTATTGCAAGTATTTCACCCCAGAGGCTAA,2.44
24,TGAGTTCTTATCTAGGTAAGTATAGTGGGA,0.775
25,TTAGATCAGAGGTCTAATTCCCAAGGGTAT,-0.116

row,Sequence,binding signal (log2 normalized intensity)
1,TCTGGCATAGGAACAAAGGTTGGTGTGAAC,2.17
2,CAGAAATGCCGCTAATGTATTTCGGGGCAC,0.877
3,CTCAAGAAAGGATCTCACCCAAACCATCCC,1.4
4,GCATACAGGGTCCAAAGGTGTCAAGAACAT,3.56
5,TCCTTAGTGCATGGGAACTTCTCACCTTCA,-1.11
6,TGTGATCTACTCCCTGTTCTTACACCTGCT,-1.21
7,ACCTCAGAGAGCCGGAAACTCCACCTTCAG,-1.27
8,GTATTTATCAACATTCTTTCTGATAATAGA,-0.146
9,CCTGCCAAAGTTATCAAGTTGCTTAAATTC,-0.393
10,TAGCTGAGGGCGCTGTTGATGGGCAGCGCG,-1.36
11,TAGACTATGCCAAACATTTCCTGCCTTTCA,-1.31
12,TGCCCTTTGCCTCCCTGCATTCCATTTCTG,2.75
13,TCTTCCAGCGGGTGCTTAAAAGATAACAGT,-1.05
14,TTGAAGTCTGCCCTCCATGTAACCCCTTTT,3.98
15,TCTACAGGACAGCCAGGCAGTCGGGAAATT,-1.2
16,CTGCTCTGGGCTTTCTCTGCCTCCATCCCT,-1.18
17,AAAGGAGGCAAGGTCCAAACTTCTCCACTC,2.07
18,GACACCAAACACAGTTGCTGTCTAGAAAGA,-1.32
19,CTGAAAAACAAAATGCATTTCCTTATTCTT,-1.28
20,TCAAGAGGATTACATAACCACCACTGGGCA,-1.44
21,GGGCCTCAGAGAAAGCCTGTTTGCTTCTGC,-1.52
22,TGTTTGGATGCCAAATTCCTCCCACTCTGA,0.294
23,AAGACCAAAGGTCATGGCAACAGTTTTCTG,4.51
24,GAGGGAAGGAGCCTAACTTTGATAGGCACA,-1.29
25,TTTTAGAGATCAGGATACCAAGGCTCAGAG,-1.2

row,Sequence,binding signal (log2 normalized intensity)
1,TGTTTCCAATAGGTTTGATTTCAGCATGTT,1.07
2,ACTCTATGTTAGGCTGGAAAACTGGGCTGT,-1.25
3,GCTGTGTCCCACAGGGAAAGTATGGGTCAG,1.38
4,GCCTTTAATCAACTGCAGGAGTCGGGAGGT,-1.21
5,CCCTGCATCCACATGGGCGTCACCAACCAG,2.16
6,CAGTAACAGGGAGTCTGTTGCAAGCAATGG,-1.43
7,AACCCCTTTTCAATTCCTTATCTCGTTCTG,0.721
8,AAACACTGAACCTTGTCCCACTCTTGGGTC,2.49
9,ACAGTTGCTGTCTAGAAAGATTGCAGCAAG,-1.19
10,GGGTTAAAGTCTACAACCAGAACTTCTTAT,1.71
11,TCATTTCCCCATTCCTAAGTTCCAAAGGCC,3.83
12,AGGCTGAGGTTTTCATCCCAGGGCTGGGGA,-1.17
13,CCTGGTCACTATTGACATTTGGGGTCAGAT,4.28
14,TGGAAAGGTGAATGTACAAAGGTCAACGGC,6.5
15,ACAGACCTTTGTATATTCCCTTTGTATGGC,2.06
16,CGTTAACATCAGCTGAGCAGAGAGGACCCT,1.6
17,AGGAGGACATACTCCTACCACCAAAGAAAA,-1.15
18,GTATACTGACTAGGACAGAGCAGATGAAAG,-1.34
19,TAAGCTCATGCTTTCATCTCCCCAACACTT,3.52
20,AGCCATTAGGCTGATGCCCTTTGGATTTAG,4.65
21,TTAGGCCTCGGGAGTCTGGCTGCCCTGGGG,-0.712
22,GTCCTACAAATGATCAAAGGTTGGTCTTAG,3.41
23,TGTGTAGACATCACCTGCTCATTGACCCTT,5.99
24,GATCCCGGGAGGGAGAGAAGGACATCTATC,-1.26
25,GTGTGAGGTCCAAGCAGATGCTTTGAAGTG,0.283

row,Sequence,binding signal (log2 normalized intensity)
1,TTTTGATCAAGGAGGACTTTGGAATGGCAG,4.79
2,GCCAAAAGGTGCTACCACGAGAGTAGAGAG,-1.22
3,AGATTTGACCTACGGACCATGGATCGCCAA,2.69
4,GGACGTCCCCGGGCGGGATGGGGTCACGAG,3.04
5,CTCAAGCCAGACTGGTTTTTCTTGGGTGTA,1.76
6,CTGATAAAACAGCATGCGGTAAAGAAGCCA,-1.33
7,AGCCTAGTAAAAGGTAGATACTATAATTAG,-1.18
8,GCATGGCTCAGTCCAAGTCCAAAGGTCTGA,6.28
9,CTATCTTTGTAAGTACATTAATATACTGTG,1.89
10,CTTATCAGCAAGCATTAATCCCTGAGCCTG,-1.33
11,TTAAAGCATATTTATTCAGGCCCACTGCAG,-1.21
12,ATCCCAGTTACTCAGCGAATACCAAATTCC,-0.965
13,ATGCACGTGCTCCAGGAGGGGAGGAGGGTC,3.4
14,AGCTGTGAACTGACTGGGGTTAACGTCCAA,3.43
15,CCTATTATTTTATAGAAAAGGAAAGTGAGG,1.22
16,TGGGGATGCTCAAAGTACACTTGGAGAAAA,0.892
17,TCACCCTGGTGCTGCTACTTTAGCTGCCAG,-1.35
18,CAACCTGCTCTTCTCTAAAGTCTGCTATCT,1.26
19,TGTGATGTGAAGAGTGTGGACTTTCACCTC,8.92
20,AACATAACAGCAACAACACAGATCATATCA,-1.27

# From paper PMC10726135
